Hit rate of the full screen: of about 310,000 compounds, about 2,200 (0.71%) showed an effect of 50% or more. The effect is printed as a negative number. The list shows a part of the results.
What follows are compounds tested against human ether-à-go-go-related gene (hERG) potassium channel (human, UniProt Q12809) (assay: primary screen, population patch clamp on CHO cells stably expressing hERG).
human ether-à-go-go-related gene (hERG) potassium channel, sequence (Q12809 whole entry, looked up): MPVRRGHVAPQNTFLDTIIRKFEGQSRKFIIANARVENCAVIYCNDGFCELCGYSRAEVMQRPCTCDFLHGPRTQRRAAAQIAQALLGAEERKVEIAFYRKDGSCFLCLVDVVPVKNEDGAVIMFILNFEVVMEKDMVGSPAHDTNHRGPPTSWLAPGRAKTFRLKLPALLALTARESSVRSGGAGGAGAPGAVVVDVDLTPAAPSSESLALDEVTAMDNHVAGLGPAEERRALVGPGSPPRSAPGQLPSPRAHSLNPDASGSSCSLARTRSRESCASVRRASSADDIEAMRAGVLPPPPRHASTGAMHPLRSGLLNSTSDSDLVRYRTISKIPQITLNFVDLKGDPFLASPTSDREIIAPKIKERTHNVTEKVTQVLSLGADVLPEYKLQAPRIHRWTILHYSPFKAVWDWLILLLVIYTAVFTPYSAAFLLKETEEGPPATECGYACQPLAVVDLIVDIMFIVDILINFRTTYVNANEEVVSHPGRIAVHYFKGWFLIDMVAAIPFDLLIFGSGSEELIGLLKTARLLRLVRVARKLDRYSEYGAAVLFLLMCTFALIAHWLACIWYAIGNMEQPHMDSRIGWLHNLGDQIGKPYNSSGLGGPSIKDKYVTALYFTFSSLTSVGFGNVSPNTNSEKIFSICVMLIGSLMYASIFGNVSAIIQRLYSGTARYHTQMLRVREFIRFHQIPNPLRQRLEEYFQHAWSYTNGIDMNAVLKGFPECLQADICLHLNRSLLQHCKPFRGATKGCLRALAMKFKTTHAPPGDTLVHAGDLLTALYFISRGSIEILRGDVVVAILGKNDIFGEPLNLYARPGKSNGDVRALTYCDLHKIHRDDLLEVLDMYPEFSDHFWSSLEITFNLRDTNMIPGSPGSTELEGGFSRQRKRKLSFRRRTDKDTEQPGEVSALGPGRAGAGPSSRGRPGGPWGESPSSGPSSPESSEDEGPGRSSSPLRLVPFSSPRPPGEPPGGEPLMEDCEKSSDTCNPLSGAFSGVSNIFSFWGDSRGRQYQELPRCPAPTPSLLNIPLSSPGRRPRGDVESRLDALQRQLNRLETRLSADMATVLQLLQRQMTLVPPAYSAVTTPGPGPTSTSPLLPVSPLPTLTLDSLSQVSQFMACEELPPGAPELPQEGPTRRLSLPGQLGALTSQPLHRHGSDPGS

Compound	hERG current change (%, negative = inhibition) at 1uM
COc1ccc(S(=O)(=O)N(C)C)cc1NC(=O)c1ccc(OCC(=O)N2CCOCC2)c(OC)c1	-0.106%
CC1CCN(C(=O)COC(=O)Cn2cnc3c2c(=O)n(C)c(=O)n3C)CC1	17.6%
COc1ccc(Br)c(C(=O)N(C)CC(=O)Nc2ccc(N3CCOCC3)cc2)c1	-6.73%
NS(=O)(=O)c1ccc(NC(=O)CSc2nc3ccccc3n2-c2ccccc2)cc1	16.8%
CN(CC(=O)Nc1ccc(F)cc1)CC(=O)N1CCCC1	7.78%
O=C(CSc1ccccn1)Nc1nc2ccc(Br)cc2s1	7.09%
CCOC(=O)CSc1nc2c(sc(=S)n2-c2ccc(CC)cc2)c(=O)[nH]1	12.1%
O=C(c1n[nH]c(=O)c2ccccc12)N1CCN(Cc2ccc3c(c2)OCO3)CC1	3.53%
CC(=O)N1CCN(S(=O)(=O)c2cccc(C(=O)OCC(=O)NC(=O)c3cccn3C)c2)CC1	5.26%
O=C(NCCc1nc2ccccc2[nH]1)c1cccc(Br)c1	-5.27%
O=C(COC(=O)c1cccs1)NCc1ccc2c(c1)OCO2	-2.63%
CCCC(=O)N1c2ccccc2C(=C2SC(C(=O)OC)=C(C(=O)OC)S2)C(=S)C1(C)C	0.445%
O=C(N/N=C\C=C\c1ccco1)c1cncc(Br)c1	25.1%
COC(=O)c1cc(C(=O)OCC(=O)N(C)C2CCS(=O)(=O)C2)cc([N+](=O)[O-])c1 (centres unmarked)	0.39%
COc1ccc2cc(C3CC(c4cccs4)=NN3S(C)(=O)=O)c(Cl)nc2c1 (centres unmarked)	1.82%
CCc1nnc(NC(=O)CSc2nnc(CNc3ccc(C)cc3)n2C)s1	9.92%
CCCn1c(C(O)c2ccc(OC)c(OC)c2)nc2ccccc21 (centres unmarked)	12.4%
O=c1[nH]nc(SCCS(=O)(=O)c2ccc(F)cc2)n1-c1ccccc1	6.77%
Cc1c(CN(C)C(=O)c2sc3cc(Cl)ccc3c2Cl)cnn1C	-18.3%
Cc1nnc(SC(C)C(=O)Nc2nccs2)s1 (centres unmarked)	21.7%
Cc1ccccc1OCCN1C(=O)NC2(CCCc3ccccc32)C1=O (centres unmarked)	-4.06%
Cc1cc(OCC(=O)O)c2c3c(c(=O)oc2c1)CCCC3	15.1%

Compound	hERG current change (%, negative = inhibition) at 1uM
N#Cc1ccc(NC(=O)c2nc(-c3ccccc3)n(-c3ccccc3)n2)cc1	-15.4%
O=C(Nc1cccc(S(=O)(=O)NC2=NCCC2)c1)c1cc(-c2ccco2)nc2ccccc12	13.8%
COc1ccccc1N(C(C)=O)C1SC(=O)N(c2ccccc2)C1=O (centres unmarked)	21.3%
COc1ccc(CN2c3cc(S(=O)(=O)N4CCOCC4)ccc3N3CCCC32)cc1 (centres unmarked)	-2.41%
O=C(Nc1ccc(N2CCCC2)cc1)c1cccc(F)c1	2.14%
CCn1c(CNC(=O)c2ccco2)nnc1SCC(=O)Nc1cc(F)ccc1C	9.23%
COc1ccc2nc(-n3c(O)c(C4=c5ccccc5=NC4=O)[nH]c3=S)sc2c1	11.4%
O=C(O)COc1ccc(/C=C2/SC(=S)N(Cc3ccccc3)C2=O)cc1	14.9%
CC1=NN(c2ccc([N+](=O)[O-])cc2)C(=O)/C1=C\N(C)C	5.09%
Cc1ccc(SSc2cc(C)ccc2N)c(N)c1	5.57%
Cc1c(/C=N/NC(N)=O)c2ccccn2c1C(=O)c1ccc(F)cc1	4.11%
Cc1cc(C)n2c(SCCO)nnc2n1	15.2%
O=[N+]([O-])c1ccc(Nc2nc(N/N=C\c3ccc4c(c3)OCO4)nc(N3CCCCC3)n2)cc1	8.42%
CC1C(=O)N2CCCc3cc(NS(=O)(=O)c4ccccc4)cc1c32 (centres unmarked)	10.8%
COc1ccc(C(CNC(=O)Nc2ccccc2)N2CCN(C)CC2)cc1 (centres unmarked)	-0.81%
CCNC(=O)c1ccccc1SCC(=O)Nc1ccc(F)cc1	2.1%
COc1ccc(C(C(=O)NC2CCCC2)N(CCO)C(=O)Cn2nnc(-c3ccc(C)o3)n2)cc1 (centres unmarked)	13.2%
CCOc1nc(N2CCOCC2)nc(N2CCOCC2)n1	23%
COc1ccccc1N1CCN(C(=O)CSc2nc3ccccc3c(=O)n2CC2CCCO2)CC1 (centres unmarked)	-16%
COc1ccc(N2C(=O)CCC2=O)c(OC)c1	8.08%
CSc1ccc(CCNC(=O)C2CCCN(c3nn4c(=O)cc(C)nc4s3)C2)cc1 (centres unmarked)	4.39%
O=C(COC(=O)c1ccccc1O)Nc1cccc(S(=O)(=O)NC2=NCCCCC2)c1	12.3%

Reference: paper PMC4336329 (PLoS ONE, 2015)
